Data: PMC4336329 (PLoS ONE, 2015)
Hit rate of the full screen: of about 310,000 compounds, about 14,000 (4.5%) showed an effect of 50% or more. Effects have a minus sign here. Some of the results follow.

These molecules were tested against human ether-à-go-go-related gene (hERG) potassium channel (human, UniProt Q12809) (assay: primary screen, population patch clamp on CHO cells stably expressing hERG).
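Note: peak tail current of the secondary pulse compared with the same well before compound.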

Chain of human ether-à-go-go-related gene (hERG) potassium channel (Q12809 whole entry, looked up): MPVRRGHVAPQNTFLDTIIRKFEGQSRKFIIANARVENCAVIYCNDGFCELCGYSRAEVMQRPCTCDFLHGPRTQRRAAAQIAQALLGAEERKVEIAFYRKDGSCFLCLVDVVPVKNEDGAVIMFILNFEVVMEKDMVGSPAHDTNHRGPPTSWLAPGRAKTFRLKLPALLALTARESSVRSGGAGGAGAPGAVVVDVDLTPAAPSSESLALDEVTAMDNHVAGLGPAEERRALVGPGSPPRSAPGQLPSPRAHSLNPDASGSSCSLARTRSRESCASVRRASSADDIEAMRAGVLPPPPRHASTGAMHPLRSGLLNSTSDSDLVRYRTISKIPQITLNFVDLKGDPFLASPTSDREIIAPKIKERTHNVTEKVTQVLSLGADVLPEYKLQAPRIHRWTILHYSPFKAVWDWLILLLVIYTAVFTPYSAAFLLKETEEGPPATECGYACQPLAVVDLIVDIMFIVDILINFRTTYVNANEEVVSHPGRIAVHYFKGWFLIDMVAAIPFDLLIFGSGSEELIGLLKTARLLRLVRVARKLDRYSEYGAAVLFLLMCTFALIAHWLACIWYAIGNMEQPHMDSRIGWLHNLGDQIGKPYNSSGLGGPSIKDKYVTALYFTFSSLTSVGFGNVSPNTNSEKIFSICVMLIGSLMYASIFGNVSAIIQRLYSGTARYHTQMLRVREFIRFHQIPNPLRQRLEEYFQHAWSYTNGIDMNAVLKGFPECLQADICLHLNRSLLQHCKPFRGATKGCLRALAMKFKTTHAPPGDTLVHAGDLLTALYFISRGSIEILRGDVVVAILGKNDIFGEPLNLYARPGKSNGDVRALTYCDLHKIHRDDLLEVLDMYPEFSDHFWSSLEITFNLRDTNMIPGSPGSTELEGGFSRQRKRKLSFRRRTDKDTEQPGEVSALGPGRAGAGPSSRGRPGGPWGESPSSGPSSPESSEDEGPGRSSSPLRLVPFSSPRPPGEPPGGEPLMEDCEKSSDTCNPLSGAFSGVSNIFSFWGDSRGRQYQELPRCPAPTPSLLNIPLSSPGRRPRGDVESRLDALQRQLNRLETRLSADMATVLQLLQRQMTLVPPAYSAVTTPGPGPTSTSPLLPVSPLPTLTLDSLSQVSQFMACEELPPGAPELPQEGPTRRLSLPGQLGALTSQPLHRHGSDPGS

| Compound | hERG current change (%, negative = inhibition) at 10uM [%] |
| --- | --- |
| CN(CC(=O)Nc1ccc(N2CCOCC2)cc1)CC(=O)Nc1ccccc1[N+](=O)[O-] | -25.3 |
| Cc1cc(C)cc(C(=O)NN2CCOCC2)c1 | -3.55 |
| CCCCc1cc(=O)oc2cc(C)cc(OC(C)C(=O)NC(Cc3c[nH]c4ccc(O)cc34)C(=O)O)c12 (centres unmarked) | -0.205 |
| COc1ccc(S(=O)(=O)N2CC=C(C(=O)Nc3ccc(NC(C)=O)cc3)CC2)cc1 | 65.1 |
| CC#CCc1cc2ccccc2c(=O)o1 | 11.6 |
| COc1ccc(-c2nc(SC(C)C(=O)c3c(N)n(C)c(=O)n(C)c3=O)n[nH]2)cc1 (centres unmarked) | 8.3 |
| CCOc1cc(C(=O)Nc2nnc(C)s2)cc(OCC)c1OCC | -1.56 |
| O=C(COC(=O)c1cc(C(F)(F)F)cc(C(F)(F)F)c1)NCc1ccc(Cl)cc1 | 7.61 |
| Cc1c(Cl)cccc1NC(=S)N1CCN(Cc2ccccc2)CC1 | -3.12 |
| O=C(NCC1CCCO1)C1CCC(N2C(=O)c3ccccc3C2=O)CC1 (centres unmarked) | 5.87 |
| CCC(C)[C@H](NC(=O)Nc1ccc(S(N)(=O)=O)cc1)C(=O)OC (some centres unmarked) | 13.1 |
| CCOC(=O)c1nn(-c2ccccc2C)c(=O)cc1OCC(=O)N1CCN(c2ccccc2)CC1 | -24.6 |
| CC(OC(=O)c1ccncc1)C(=O)Nc1cccc(Cl)c1 (centres unmarked) | -23.2 |
| CC1(C)Oc2ccc(C(=O)Nc3ccccc3F)cc2N(CC(=O)N2CCOCC2)C1=O | -4.59 |
| Cn1cc(/C=C2\SC(=O)N(c3ccccc3)C2=O)c2ccccc21 | 1.48 |
| COc1ccc2c(c1)-c1nc(N)sc1CC2 | -7.58 |
| CC1(C)N=C(N)N=C(N)N1c1ccc(OCCCOc2ccccc2)c(Cl)c1.CCS(=O)(=O)O | -28.7 |
| O=c1oc(-c2ccccc2)cc(Cl)c1Cl | 6.6 |
| Nc1ccc(C(=O)OCc2ccncc2)cc1[N+](=O)[O-] | -28.7 |
| CC(=O)Nc1nc2c(c3c1c(=O)oc1ccccc13)CCCCC2 | -7.1 |
| CC(O)CCc1nc2ccc(C(=O)O)cc2[nH]1.Cl (centres unmarked) | 14.5 |
| CC1=NN(c2ccccc2)C(=O)/C1=C/C=C/c1ccccc1 | 8.91 |

| Compound | hERG current change (%, negative = inhibition) at 10uM [%] |
| --- | --- |
| Cc1[nH]c(C)c(S(=O)(=O)N(Cc2ccccc2)C(C)(C)C)c1C(=O)N1CCCC1 | -1.14 |
| N#CCCn1c(SCC(=O)c2c[nH]c3ccccc23)nc2ccccc21 | 2.09 |
| CC(OC(=O)CNC(=O)C12CC3CC(CC(C3)C1)C2)C(=O)Nc1ncc(Cl)cc1Cl (centres unmarked) | -6.7 |
| CCOc1ccc(-n2c(SCC(=O)Nc3cc(C)on3)nc3c(c2=O)SCC3)cc1 | -0.269 |
| O=C(CSc1nnnn1-c1ccccc1)Nc1ncc(Cc2cccc(Cl)c2Cl)s1 | 21.6 |
| O=[n+]1c2c(n([O-])c3c1CCC3)CCCC2 | 11.6 |
| C=CCOC(=O)C1=C(C)NC(C)=C(C(=O)OCC=C)C1c1ccc(O)cc1 | -30 |
| CCOC(=O)C(CC)Sc1nnc2c3cc(C)ccc3n(C)c2n1 (centres unmarked) | -4.52 |
| CCOC(=O)c1sc(=NC(=O)c2cc(OC)c(OC)c(OC)c2)n(C)c1C | -6.86 |
| O=C(NCc1ccc(F)cc1)C1CC(=O)N(Cc2ccco2)C1 (centres unmarked) | -17 |
| O=C(CSc1nnc(COc2ccccc2)o1)N1CCCC1 | -2.25 |
| O=C(NCc1cccs1)C1CCN(S(=O)(=O)c2ccc(Cl)cc2)CC1 | 4.41 |
| Cc1cccc(N(C(=O)c2snc(C(N)=O)c2N)C(C(=O)NC2CCCC2)c2ccc(C)o2)c1 (centres unmarked) | 17.6 |
| COc1cccc(C(=O)N2CCOCC2)c1 | 20.2 |
| CC(=O)NC1CC2CCCC(C1)N2S(=O)(=O)c1ccccc1 (centres unmarked) | 16.3 |
| Cc1cc(Cl)ccc1NC(=O)C1COc2ccccc2O1 (centres unmarked) | -25.5 |
| COc1ccc(S(=O)(=O)NCC(c2cccnc2)N2CCN(C)CC2)cc1C (centres unmarked) | -62.9 |
| CC(Sc1nnc(CNC(=O)c2ccccc2F)n1C)C(=O)Nc1nccs1 (centres unmarked) | 18.1 |
| CCOC(=O)CNC(=S)SC | 3.34 |
| CSc1nc(Oc2cccc(C(F)(F)F)c2)cc(C(F)(F)F)n1 | 17.1 |
| N#CNC(=Nc1ccccc1)SCc1ccc(C(=O)O)cc1 | 4.72 |
| COc1ccc(C2=NOC(C(=O)Nc3ccc4c(c3)OCO4)C2)cc1OC (centres unmarked) | -4.72 |

| Compound | hERG current change (%, negative = inhibition) at 10uM [%] |
| --- | --- |
| COc1cc2[nH]c(=O)n(-c3ccccc3)c(=O)c2cc1OC | 15.9 |
| CN(Cc1ccccc1)C(=O)c1cccnc1 | 0.506 |
| C=CCn1c(SCC(=O)N(CCO)CCO)nc2sc3c(c2c1=O)CCC3 | 0.851 |
| O=C(NC(c1ccccc1)C(Cl)(Cl)Cl)c1ccccc1 (centres unmarked) | -11.3 |
| O=C(CCCCCNC(=O)N1CCn2c1nc1ccccc12)N[C@@H](C(=O)O)c1ccccc1 | -1.27 |
| S=C(NCc1ccncc1)Nc1ccc(Cl)cc1Cl | 3.3 |
| O=C(O)c1ccccc1N(Cc1ccccc1)C(=O)COc1ccccc1 | 10.8 |
| O=C(Cc1c[nH]c2ccccc12)NC1(C(=O)NC2CCCCC2)CCCCC1 | -4.74 |
| O=C(CSc1nc2ccc(Cl)cc2[nH]1)NCc1ccco1 | -51.8 |
| CCC(CC)C(=O)Nc1c2cnn(-c3ccccc3)c2nc(=O)n1-c1ccccc1 | 10.7 |
| Cc1ccc(S(=O)(=O)N/N=C\c2cc([N+](=O)[O-])ccc2Cl)cc1 | 12.3 |
| Cc1ccc2cccc(S(=O)(=O)Nc3c(C)n(C)n(-c4ccccc4)c3=O)c2n1 | -0.878 |
| O=C(COC(=O)/C=C/c1cccc(C(F)(F)F)c1)NCc1cccs1 | 2.72 |
| CCOC(=O)c1[nH]c(C)c(C(=O)OCCN2C(=O)c3ccccc3C2=O)c1C | -1.16 |
| COc1cc2c(cc1OC)C(C(=O)Nc1cc(OC)c(OC)c(OC)c1)C(c1cccnc1)N(C)C2=O (centres unmarked) | -1.11 |
| CCOC(=O)C1=C(C)N=c2s/c(=C/c3ccc(OCC(=O)O)cc3)c(=O)n2C1c1ccc(OC)cc1OC (centres unmarked) | 14.4 |
| CCOC(=O)CSc1ncc(-c2ccc([N+](=O)[O-])cc2)[nH]1 | -61 |
| Cc1cccn2c(=O)nc(SCC(=O)NCc3ccc4c(c3)OCO4)nc12 | -27.1 |
| Cc1ccc(C(=O)Nc2cccc3ccccc23)cc1 | 12.5 |
| COc1cc(OC)c(N(C)S(=O)(=O)c2cccc(C(=O)Nc3nnc(C4CC4)s3)c2)cc1Cl | -1.32 |
| N#Cc1c(N)n(CCNC(=O)c2ccccc2)c2nc3ccccc3nc12 | 22.8 |
| Cc1ccc(OCC(=O)Nc2ccc3c(c2)nc(CCN2CCN(C)CC2)n3C)cc1 | -55.6 |

| Compound | hERG current change (%, negative = inhibition) at 10uM [%] |
| --- | --- |
| N#Cc1c(N)nc2c(c1-c1cccc(O)c1)CCCCCC2 | -7.92 |
| CCc1ccc(NC(=O)C(=O)NNC(=O)c2cccc(OC)c2)cc1 | -3.43 |
| CCN(CC)c1ccc(/C=C(\C#N)C(=O)c2ccc(Br)cc2)cc1 | 5.89 |
| O=C(Nc1ccsc1C(=O)N1CCCC1)c1ccccc1 | 6.81 |
| c1ccc(-n2ncc3c(N4CCC5(CC4)OCCO5)ncnc32)cc1 | 0.94 |
| O=C(CSc1nnc(-c2cccnc2)n1Cc1ccco1)c1ccc2ccccc2c1 | -45.6 |
| O=c1c2cc(Cl)ccc2[nH]c(=S)n1Cc1cccs1 | -5.85 |
| CCOC(=O)c1nn(-c2cccc(Cl)c2)c2nc(CC(C)C)c(C#N)c(=O)n12 | -4.52 |
| O=C(N/N=C/C=C\c1cccc([N+](=O)[O-])c1)c1cccnc1 | -13.2 |
| Cc1ccc(COC(=O)c2cc(S(=O)(=O)N3CCCCC3)ccc2N2CCOCC2)cc1 | -13.9 |
| CCn1c(CSc2nnc(-c3ccoc3C)n2C)nc2cc(S(=O)(=O)N(C)C)ccc21 | 8.81 |
| CC(=O)c1cc(F)c(N2CCN(C(=O)c3ccco3)CC2)cc1C | -18.5 |
| COc1ccc2c(c1)c(=O)oc1c(C)c(OCC(=O)N3CCc4ccccc4C3)ccc12 | 7.06 |
| O=C(Nc1ccc(Br)cc1Br)C1CC(=O)N(Cc2ccccc2)C1 (centres unmarked) | 10.7 |
| CCOC(=O)C(NC(C)=O)(Nc1ccc(S(=O)(=O)Nc2cc(C)on2)cc1)C(F)(F)F (centres unmarked) | 5.6 |
| CSc1nnc(NC(=O)c2ccc3c(c2)OCO3)s1 | 13.3 |
| CC(=O)c1ccc(OCC(=O)N(CCC2=CCCCC2)c2c(N)n(Cc3ccccc3)c(=O)[nH]c2=O)cc1 | -19.6 |
| CC(=O)N/C(N)=N/c1nc(=O)c2ccccc2s1 | 12.1 |
| Cc1ccc(S(=O)(=O)NC(C)(C)CN2CCC(Cc3ccccc3)CC2)cc1.O=C(O)C(=O)O | -64.8 |
| Cc1ccc(CNC(=O)CCS(=O)(=O)c2ccc3c(c2)NC(=O)CS3)cc1 | -9.45 |
